Laboratory results published in patent US20210008161A1, “METHODS AND COMPOSITIONS FOR IMPROVED HOMOLOGY DIRECTED REPAIR” (CRISPR THERAPEUTICS AG, priority 2019, published 2021).

Key:
[1] = tested on: human LT-HSPCs administered to cKit mice; test: Maintenance of HBB gene-edit by HDR in mouse bone marrow by NGS assay; assay type: in vivo; details: for levels of gene-editing in the HBB locus in bone marrow: Example 7, AAV.304, vs AAV+RNP alone, FIG. 26B
Experimental: Maintenance of gene-editing was evaluated in mouse bone marrow collected at 16 weeks post-administration of LT-HSPCs. Incorporation of a sickle mutation (E7V) in the HBB locus was evaluated in DNA isolated from mouse bone marrow samples using the next generation sequencing assay described in Example 4. Shown in FIG. 19 is a comparison of HDR efficiency for LT-HSPCs edited either with or without i53. LT-HSPCs were electroporated with Cas9/gRNA and treated with AAV. […] LT-HSPCs edited in the presence of i53 had 1.8-fold higher HDR frequency in the bone marrow compared to cells edited with AAV+RNP alone.
Maintenance of gene-editing was evaluated in mouse bone marrow collected at 16 weeks post-administration of LT-HSPCs. Incorporation of a sickle mutation (E7V) in the HBB locus was evaluated in DNA isolated from mouse bone marrow samples using the next generation sequencing assay described in Example 4. […] LT-HSPCs were electroporated with Cas9/gRNA and treated with AAV prior to electroporation or following electroporation. Incorporation of the gene-edit in bone marrow samples was similar for LT-HSPCs edited with RNP and AAV given either pre-EP or post-EP. Additionally, incorporation of the gene edit in the HBB locus by HDR was compared for LT-HSPCs edited in the presence of i53 or Nu7441 (FIG. 26B).
The persistence of edits at the HBB gene locus in mouse bone marrow samples was also evaluated. Briefly, mouse bone marrow was isolated at 16 weeks post-administration of edited cells. Genomic DNA was isolated from the samples, and evaluated for incorporation of the edit encoded by AAV.323 at the HBB gene locus using the NGS assay as described in Example 4. Frequency of INDELs at the R02 cut site in the HBB gene locus was also assessed by NGS.

[2] = tested on: human LT-HSPCs administered to cKit mice; test: Lineage analysis of engrafted CD45-expressing human cells in mouse bone marrow; assay type: in vivo; details: bone marrow 16 weeks
Experimental: (§1) Presence of human hematopoietic cells was measured by flow cytometry in mouse blood or bone marrow samples. Cells were gated on singlet, live cells. Mouse and human CD45-expressing hematopoietic cells were distinguished by antibodies targeting mouse or human CD45. Engraftment was measured as percent chimerism which was defined as the quantity of human CD45 positive cells divided by the total number of CD45 positive cells (e.g., human and mouse CD45 expressing cells combined). The lineage of human CD45 positive cells was determined using markers for CD19 (e.g., B cells), CD3 (e.g., T cells), CD33 (e.g., myeloid cells), and CD34 (hematopoietic stem/progenitor cells (HSPCs)).
Shown in FIGS. 18A-18B is lineage analysis of engrafted CD45-expressing human cells in mouse bone marrow samples collected at 16 weeks post administration of LT-HSPCs. The lineage of CD45-expressing human leukocytes was evaluated for unedited LT-HSPCs administered at a dose of 0.01×10^6, 0.05×10^6, 0.1×10^6, or 0.25×10^6 cells (FIG. 18A). The lineage of CD45-expressing human leukocytes was also evaluated for LT-HSPCs edited with AAV+RNP either in the presence or absence of i53 (FIG. 18B).
Shown in FIG. 25 is lineage analysis of engrafted CD45-expressing human cells in mouse bone marrow samples collected at 16 weeks post administration of LT-HSPCs. […]

[3] = tested on: CD34-expressing LT-HSPCs; test: HDR incorporation of E7V sickle mutation at HBB locus by NGS assay
[4] = tested on: human LT-HSPCs administered to cKit mice; test: Engraftment (percent chimerism) of edited human LT-HSPCs in mice by flow cytometry; assay type: in vivo, mouse; details: for chimerism in bone marrow: FIG. 24B
Experimental: The cells were administered by intravenous injection to cKit mice at 2 days following electroporation. Recipient mice were treated with sublethal irradiation (100 cGy) at 1 day prior to administration of LT-HSPCs to eliminate hematopoietic cells in the bone marrow and enable engraftment of the donor cells. Animals were evaluated for presence of human hematopoietic cells in peripheral blood at 8 and 16 weeks following LT-HSPC administration. The bone marrow was also evaluated for engraftment and maintenance of the HBB gene-edit at 16 weeks following LT-HSPC administration.
as §1
Human LT-HSPCs were administered to mice following electroporation with Cas9/gRNA and AAV encoding a sickle cell mutation (E7V) as shown in FIG. 21. LT-HSPCs were mobilized from healthy donors using plerixafor. LT-HSPCs were gene-edited following 2 days in culture.
A dose of 0.5×10^6 cells was administered by intravenous injection to cKit mice at 2 days following electroporation. Recipient mice were treated with sublethal irradiation (100 cGy) at 1 day prior to administration of LT-HSPCs to eliminate hematopoietic cells in the bone marrow and enable engraftment of the donor cells. Animals were evaluated for presence of human hematopoietic cells in peripheral blood at 8 and 16 weeks following LT-HSPC administration. The bone marrow was also evaluated for engraftment and maintenance of the HBB gene-edit at 16 weeks following LT-HSPC administration.
Edited cells were administered in vivo as described in Example 5, and the level of engraftment of human hematopoietic progenitor cells was evaluated in mouse bone marrow. Briefly, a dose of approximately 5×10^6 per animal LT-HSPCs was administered by intravenous injection to cKit mice at two days post-editing. Recipient mice were treated with sublethal irradiation (100 cGy) at 1 day prior to administration of LT-HSPCs. At 16 weeks following administration, the presence of human hematopoietic cells in mouse bone marrow samples was evaluated by flow cytometry as described in Example 5. […] However, their ability to do so can depend on, for example, the donor from which the cells are obtained, method of isolation, culture conditions or cell cycle status.

[5] = Example 7, 16 weeks, vs RNP+AAV alone

Compound: i53: polypeptide inhibitor of 53BP1 (SEQ ID NO: 70), introduced as an mRNA-encoded protein (ORF SEQ ID NO: 69)
- incorporation of the gene edit by HDR in bone marrow ([1]; Example 5, E7V, 16 weeks post-administration, FIG. 19): 65%
- fold higher HDR frequency in the bone marrow ([1]; Example 5, compared to cells edited with AAV+RNP alone, FIG. 19): 1.8 fold
- levels of gene-editing in the HBB locus in bone marrow ([1]; 16 weeks): substantially higher
- frequency of the AAV.323 gene edit incorporated by HDR in bone marrow ([1]; Example 8, 16 weeks, FIG. 31B): maintained
- lineage distribution of engrafted human CD45-expressing cells ([2]; Example 5, edited vs un-edited LT-HSPCs, FIG. 18B): no gross changes
- incorporation of the E7V gene edit ([3]; AAV.307 + Cas9/R02 gRNA RNP, 1 μg mRNA encoding i53, FIG. 10): 68%
- incorporation of the E7V gene edit ([3]; Example 6, AAV.304 pre-EP + RNP, 1 μg i53 mRNA, FIG. 22B): 58%
- incorporation of the sickle cell gene-edit by HDR ([3]; LT-HSPCs isolated by Mozobil+GCSF, FIG. 12A): approximately 60%
- fold increase in HDR efficiency ([3]; LT-HSPCs isolated by Mozobil+GCSF, over RNP+AAV alone, FIG. 12A): approximately 1.5 fold
- cells incorporating the sickle cell gene-edit ([3]; LT-HSPCs isolated using Mozobil alone, FIG. 12B): approximately 70%
- percent chimerism in bone marrow ([4]; Example 5, 16 weeks, 0.25×10^6 LT-HSPCs, compared to AAV+RNP alone, FIG. 16): no further decrease
- human CD45-expressing cells among total CD45-expressing cells in the blood ([4]; Example 5, blood at 8 and 16 weeks, RNP+AAV alone or in combination with i53, FIG. 17): 2-3%
- chimerism in bone marrow [4, 5]: comparable
- chimerism in blood ([4]; Example 7, blood at 8 and 16 weeks, 0.5×10^6 cells, vs RNP+AAV alone, FIG. 23B): comparable

Compound: O=c1cc(N2CCOCC2)oc2c(-c3cccc4c3sc3ccccc34)cccc12 [Nu7441]
- levels of gene-editing in the HBB locus in bone marrow ([1]; 16 weeks): comparable
- proportion of CD34-expressing cells and myeloid cells among human leukocytes ([2]; Example 7, compared to treatment with i53, FIG. 25): greater proportion
- HDR efficiency ([3]; Example 6, AAV.304 pre-EP + RNP, 5 μM Nu7441, over RNP+AAV alone, FIG. 22B): no improvement
- chimerism in bone marrow [4, 5]: higher
- chimerism in blood ([4]; Example 7, both 8 and 16 weeks, 5 μM Nu7441, FIG. 23B): approximately 25%
- fold increase in chimerism in blood ([4]; Example 7, over RNP+AAV alone, FIG. 23B): 2.5 fold
